# Test results published in PubChem BioAssay AID445 (National Center for Advancing Translational Sciences (NCATS), 2006).
# In all, about 110,000 compounds went through this assay and about 40 (0.04%) were called active. Inconclusive results, whose numbers are uncertain, are shown with a selection of clear calls. Calls come from the whole dose curve; as a rule, active = well fitted curve in the direction sought with a large enough effect in the signal ratio (not every such curve was filed as active); inconclusive = small, poorly fitted or top-dose-only effect, or a change in a side signal; inactive = flat fitted curve, though single readings scatter; the % refers to the signal ratio.
# Assay: IkB Signaling;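 note: 0% = basal untreated cells and 100% = reference inhibitor full response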
# Conditions: ABC-DLBCL IkBa-CBG/CBR dual luciferase ratio (green luciferase fused to IkBa over red control in OCI-Ly3 lymphoma cells), 4 h; IkBa stabilization activation: at 57.1 µM (top of the series), scaled: untreated 0%, proteasome inhibitor 100% unless noted
# In short: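 Luminescence ratio of IκBα-fused green versus native red beetle luciferase in OCI-Ly3 cells, 4 h post-doxycycline with compound; red signal alone, scaled from basal (0%) to zero light (-100%), flagged nonspecific or cytotoxic effects.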
row,SMILES,IkBa stabilization activation
1,COc1ccc(CNC(=O)c2cccc(N3CCCS3(=O)=O)c2)cc1,inactive: -0.568%
2,O=C(Cn1c(=O)n2nc(-c3ccccc3)nc2c2ccccc21)Nc1ccccc1C(F)(F)F,inconclusive: 3.82% [signal inhibitor]
3,Cc1ccc2oc(=O)c3cnn(CC(=O)NCc4ccccc4Cl)c3c2c1,inactive: 0.266%
4,COc1ccc(-c2noc(C3CCCN(C(=O)CCc4ccccc4)C3)n2)cc1 (centres undefined),inconclusive: 3.94% [signal inhibitor]
5,COc1cc(Cl)c(C)cc1NC(=O)CCc1nc2cccnc2n1-c1ccccc1,inconclusive: 0.842% [signal inhibitor]
6,CC1=C(C(=O)Nc2ccccc2)C(c2ccccc2)n2nc(-c3ccco3)nc2N1 (centres undefined),inconclusive: 3.9% [signal inhibitor]
7,CC(=O)Nc1nnc(SCc2cc(=O)c3cc(C)ccc3[nH]2)s1,inactive: 0.749%
8,COc1ccc(NC(=O)Cn2c(SCc3cccc(Cl)c3)nc3ccncc32)c(OC)c1OC,inconclusive: 12.7% [signal inhibitor]
9,COc1ccc(N2CCN(C(=O)C(CCSC)N=C3NS(=O)(=O)c4ccccc43)CC2)cc1 (centres undefined),inconclusive: 1.07% [signal inhibitor]
10,CCOc1ccccc1NC(=O)C(C)Sc1cc(-c2ccccc2)nc(C)n1 (centres undefined),inconclusive: -0.342% [signal inhibitor]
11,Cc1ccc(NCc2cccn2-c2nnc(N3CCCCCC3)s2)cc1,inconclusive: 4.04% [signal inhibitor]
12,CCCCNC(=O)C1CCN(S(=O)(=O)c2cc(Br)cc3c2N(C(=O)CC)CC3)CC1,inactive: -2.74%
13,Brc1ccc(-c2nc(-c3ccccc3)no2)o1,inactive: 8.57%
14,CCCCn1c(=O)n(-c2ccc(Br)cc2F)c(=O)c2c3c(sc21)CN(C(C)=O)CC3,inconclusive: 4.88% [signal inhibitor]
15,Cc1csc2nc(COC(=O)c3ccc(NC(=O)COc4ccccc4F)cc3)cc(=O)n12,inconclusive: -0.789% [signal inhibitor]
16,CCOC(=O)c1c(-c2ccccc2)[nH]c2ccc(O)cc12,inconclusive: -1.45% [signal inhibitor]
17,COc1ccccc1CNC(=O)C(=O)NCC(c1cccs1)S(=O)(=O)c1ccc(F)cc1 (centres undefined),inconclusive: 13.7% [signal inhibitor]
18,Cc1cc(C)cc(C(=O)N(C)[C@H](Cc2ccc(-c3ccccc3)cc2)C(=O)N[C@@H](Cc2c[nH]c3ccccc23)C(=O)O)c1,inconclusive: 0.556% [signal inhibitor]
19,O=C(CSc1nnc2ccccn12)c1ccc(OC(F)F)cc1OC(F)F,inconclusive: 7.17% [signal inhibitor]
